Assay results taken from the supplement of paper PMC12297408.
Where a name gives a salt, the structure may show the parent alone. Hit rate of the full screen: of about 1,300 compounds, about 40 (3%) showed activity. Some of the results follow.

System: Plasmodium falciparum NF54/iGP1_RE9H ulg8 stage V gametocytes
Test: gametocyte viability (luciferase signal relative to DMSO control) (% of DMSO control); higher = less gametocytocidal activity, active = 50 or less
Details: exposure time: 72 h
In short: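 Stage V gametocytes of the NF54/iGP1_RE9Hulg8 line (day 12; ~2.5% gametocytemia, 3% hematocrit), in medium containing 0.5% Albumax II, were dispensed into 96-well plates with compounds spotted in nanolitre volumes from 10 mM DMSO stocks, for final concentrations of 10 µM or 1 µM in a single well each. After 72 h at 37 °C, 90 µl from each well was combined with 10 µl D-luciferin (30 mg/ml), and luminescence was measured on an IVIS Lumina II. Viability was expressed against the mean of the DMSO vehicle wells on the same plate.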

Compound	gametocyte viability (concentration: 1 µM)	gametocyte viability (concentration: 10 µM)
Cc1c(NC(C)C)c(=O)n(-c2ccccc2)n1C [Isopyrin hydrochloride]	inactive: 94.9	inactive: 92.5
CN(C)CCN(Cc1ccc(Cl)cc1)c1ccccn1 [Chloropyramine hydrochloride]	inactive: 87.4	inactive: 90.3
NS(=O)(=O)Cc1noc2ccccc12 [Zonisamide]	inactive: 78.5	inactive: 88.5
COc1ccc2c(c1)C(=O)N(CCc1ccc(S(=O)(=O)NC(=O)NC3CCCCC3)cc1)C(=O)C2(C)C [Gliquidone]	inactive: 90.5	inactive: 80.9
COc1ccc([C@@H]2Sc3ccccc3N(CCN(C)C)C(=O)[C@@H]2OC(C)=O)cc1 [Diltiazem hydrochloride]	inactive: 91.2	inactive: 91.5
Cc1cn([C@H]2C[C@H](N=[N+]=[N-])[C@@H](CO)O2)c(=O)[nH]c1=O [Zidovudine, AZT]	inactive: 92.5	inactive: 91.6
CC(C[N+](C)(C)C)OC(N)=O (configuration not stated) [Bethanechol chloride]	inactive: 94.8	inactive: 95.4
CN(C)CCCC1(c2ccc(F)cc2)OCc2cc(C#N)ccc21 (configuration not stated) [Citalopram Hydrobromide]	inactive: 94	inactive: 93.3
CCCC(CCC)C(=O)O [Valproic acid]	inactive: 82.7	inactive: 85.7
O=C(O)CNC(=O)C(CS)Cc1ccccc1 (configuration not stated) [Thiorphan]	inactive: 91.7	inactive: 90.7
Cc1onc(-c2ccccc2)c1C(=O)N[C@@H]1C(=O)N2[C@@H]1SC(C)(C)[C@@H]2C(=O)O [Oxacillin sodium]	inactive: 98.1	inactive: 94.6
COC1=CC(=O)C[C@@H](C)[C@]12Oc1c(Cl)c(OC)cc(OC)c1C2=O [Griseofulvin]	inactive: 89.3	inactive: 84.6
CN(C)CCC(c1ccc(Cl)cc1)c1ccccn1 (configuration not stated) [Chlorpheniramine maleate]	inactive: 86.2	inactive: 81.6
COc1cc(N)c(Cl)cc1C(=O)NC1CCN(CCCOc2ccc(F)cc2)CC1OC (configuration not stated) [Cisapride]	inactive: 95.9	inactive: 96.7
CC(C)(C)NC(=O)[C@@H]1CN(Cc2cccnc2)CCN1C[C@@H](O)C[C@@H](Cc1ccccc1)C(=O)N[C@H]1c2ccccc2C[C@H]1O [Indinavir sulfate]	inactive: 67	active: 40
O=C(O[C@@H]1C[C@@H]2C[C@H]3C[C@H](C1)N2CC3=O)c1c[nH]c2ccccc12 [Dolasetron mesilate]	inactive: 84.5	inactive: 83.5
COC(=O)Nc1nc2cc(C(=O)c3ccc(F)cc3)ccc2[nH]1 [Flubendazol]	inactive: 80	inactive: 87.7
Cc1c(OCC(F)(F)F)ccnc1C[S+]([O-])c1nc2ccccc2[nH]1 (configuration not stated) [Lansoprazole]	inactive: 86.3	inactive: 80.6

Compound	gametocyte viability (concentration: 1 µM)	gametocyte viability (concentration: 10 µM)
Cn1c(=O)c2c(ncn2C)n(C)c1=O [Caffeine]	inactive: 97	inactive: 100
CC(C)(C)NCC(O)c1ccc(O)c(CO)c1 (configuration not stated) [Salbutamol]	inactive: 84.6	inactive: 83.9
COc1cc(N)c(Cl)cc1C(=O)NC1CCN(Cc2ccccc2)CC1 [Clebopride maleate]	inactive: 88.6	inactive: 86.1
Nc1nc(N)nc(-c2cc(Cl)ccc2Cl)n1 [Irsogladine maleate]	inactive: 85.3	inactive: 79.8
CCN1CCCC1CNC(=O)c1cc(S(=O)(=O)CC)c(N)cc1OC (configuration not stated) [Amisulpride]	inactive: 87.8	inactive: 80.8
O=C(NCC1CCCCN1)c1cc(OCC(F)(F)F)ccc1OCC(F)(F)F (configuration not stated) [Flecainide acetate]	inactive: 102	inactive: 98.6
CC1CCc2cc(F)cc3c(=O)c(C(=O)O)cn1c23 (configuration not stated) [Flumequine]	inactive: 86.4	inactive: 85
CCCCOc1ccc(OCCCN2CCOCC2)cc1 [Pramoxine hydrochloride]	inactive: 87.8	inactive: 88.4
CC(C)[C@H]1CC[C@H](C(=O)N[C@H](Cc2ccccc2)C(=O)O)CC1 [Nateglinide]	inactive: 93.6	inactive: 95.8
COc1ccccc1OCCNCC(O)COc1cccc2[nH]c3ccccc3c12 (configuration not stated) [Carvedilol]	inactive: 88.7	inactive: 81.8
CC(C)c1nc(CN(C)C(=O)N[C@H](C(=O)N[C@@H](Cc2ccccc2)C[C@H](O)[C@H](Cc2ccccc2)NC(=O)OCc2cncs2)C(C)C)cs1 [Ritonavir]	inactive: 66.4	active: 36.5
CCn1cc(C(=O)O)c(=O)c2cc(F)c(N3CCNCC3)cc21 [Norfloxacin]	inactive: 83.5	inactive: 88.4
CCOC(=O)C1=C(C)NC(C)=C(C(=O)OC)C1c1cccc([N+](=O)[O-])c1 (configuration not stated) [Nitrendipine]	inactive: 90.3	inactive: 93.3
CC(CN1c2ccccc2Sc2ccccc21)N(C)C (configuration not stated) [Promethazine hydrochloride]	inactive: 85.7	inactive: 87.3
NS(=O)(=O)c1cc2c(cc1C(F)(F)F)NC(Cc1ccccc1)NS2(=O)=O (configuration not stated) [Bendroflumethiazide]	inactive: 91.6	inactive: 92.3
O=C(c1ccc(OCCN2CCCCC2)cc1)c1c(-c2ccc(O)cc2)sc2cc(O)ccc12 [Raloxifene hydrochloride]	inactive: 79.9	inactive: 59.4
C=C(NC(=O)C(=C)NC(=O)c1csc(C2=N[C@@H]3c4csc(n4)[C@H]4NC(=O)c5csc(n5)[C@H]([C@](C)(O)[C@@H](C)O)NC(=O)[C@H]5CSC(=N5)/C(=C/C)NC(=O)[C@H]([C@@H](C)O)NC(=O)c5csc(n5)[C@]3(CC2)NC(=O)[C@H](C)NC(=O)C(=C)NC(=O)[C@H](C)NC(=O)[C@H]([C@@H](C)CC)N[C@@H]2C=Cc3c([C@H](C)O)cc(nc3[C@H]2O)C(=O)O[C@@H]4C)n1)C(N)=O [Thiostrepton]	inactive: 101	inactive: 104
CC(=C(CCO)SSCC1CCCO1)N(C=O)Cc1cnc(C)nc1N (stereo in doubt) [Fursultiamine Hydrochloride]	inactive: 83.6	inactive: 84.6
